# This is one part of the list.
# Experiments:
# HSkMC = human skeletal muscle cells; assay: cytotoxicity call (relative viability < 0.9); settings: 10 µM
# HepG2 = assay: cytotoxicity call (relative viability < 0.9); settings: 10 µM
# S. aureus RN4220 = assay: growth inhibition call (relative growth <= 0.2); settings: 50 µM
Structure (SMILES),cytotoxicity call (HSkMC),cytotoxicity call (HepG2),growth inhibition call (S. aureus RN4220)
C[C@H](CO)N1C[C@H](C)[C@@H](CN(C)S(=O)(=O)c2cn(C)cn2)Oc2ccc(NC(=O)Cc3ccccc3)cc2CC1=O,inactive,inactive,inactive
C=CCN(C(=O)[C@H]1N(c2c(Cl)cccc2CO)C(=O)[C@H]2[C@H](C(=O)O)[C@@H]3C=C[C@@]21O3)c1ccc(OC)cc1,inactive,inactive,inactive
N#Cc1c(-c2ccccc2)no[n+]1[O-],inactive,inactive,inactive
O=C(N[C@@H](c1ccccc1)c1ccc2ccccc2n1)C1CCN(CCOc2ccc(Cl)cc2)CC1,inactive,inactive,active
C[C@@H]1CCCCO[C@@H](CN(C)C(=O)Cc2ccccc2)[C@@H](C)CN([C@@H](C)CO)C(=O)c2cc(NC(=O)Nc3ccc(F)cc3)ccc2O1,inactive,inactive,inactive
O[C@@H]1N[C@H](O)c2ccccc21,inactive,inactive,inactive
C[C@@H]1CN([C@@H](C)CO)C(=O)c2cc(NS(=O)(=O)c3ccc(Cl)cc3)ccc2O[C@@H]1CN(C)Cc1ccc(Cl)c(Cl)c1,active,active,inactive
O=C1NC(=O)C2(CCCCC2)N1,inactive,inactive,inactive
C[C@@H]1CN([C@H](C)CO)C(=O)c2cc(/C=C/c3ccccc3)cnc2O[C@@H]1CN(C)C(=O)C1CCOCC1,inactive,inactive,inactive
CCO[C@H]1OC(C(=O)N2CCN(Cc3ccc4c(c3)OCO4)CC2)=C[C@@H](c2ccc(Br)cc2)[C@@H]1CCCOC(=O)NCCCCCC(=O)NO,inactive,inactive,inactive
CC(=O)c1ccc(OCc2c(-c3ccccc3)nnn2CC(=O)NS(=O)(=O)c2ccc(F)cc2)cc1,inactive,inactive,inactive
O=C(C[C@@H]1CC[C@@H](NC(=O)Nc2ccc3c(c2)OCO3)[C@@H](CO)O1)NCCCN1CCOCC1,inactive,inactive,inactive
C[C@@H]1CCCCO[C@@H](CN(C)S(=O)(=O)c2ccccc2)[C@@H](C)CN([C@H](C)CO)C(=O)c2cc(NC(=O)Nc3ccc(F)cc3)ccc2O1,inactive,inactive,inactive
Cc1cc(-c2ccccc2)nc(SCc2ccccc2)c1C#N,inactive,active,inactive
COc1ccc2c3c(n(c2c1)C)[C@@H](CO)N(CC1CCOCC1)C[C@]13CCN(CC1)C(=O)c1cnccn1,inactive,inactive,inactive
C[C@@H]1CN([C@@H](C)CO)C(=O)Cc2cc(NC(=O)Nc3ccc(F)cc3)ccc2O[C@H]1CN(C)Cc1ccc(C(F)(F)F)cc1,inactive,active,inactive
C[C@@H]1CN([C@@H](C)CO)C(=O)c2cc(NC(=O)c3ccncc3)ccc2O[C@@H](C)CCCCO[C@@H]1CN(C)C(=O)Nc1ccccc1,inactive,inactive,inactive
COc1ccc(-c2ccc3c(c2)O[C@@H](CN(C)CC2CCOCC2)[C@H](C)CN([C@H](C)CO)S3(=O)=O)cc1,inactive,inactive,inactive
C[C@H]1CN([C@@H](C)CO)C(=O)Cc2cc(NC(=O)Nc3ccc(C(F)(F)F)cc3)ccc2O[C@H]1CN(C)Cc1ccc(-c2ccccc2)cc1,active,active,inactive
C[C@@H]1CN([C@H](C)CO)C(=O)c2cccc(NC(=O)c3ccc(-c4nccs4)cc3)c2O[C@@H]1CN(C)C(=O)Nc1cccc2ccccc12,inactive,inactive,inactive

Structure (SMILES),cytotoxicity call (HSkMC),cytotoxicity call (HepG2),growth inhibition call (S. aureus RN4220)
NC(=O)CN1C(=O)C(=O)c2cc(Cl)ccc21,inactive,inactive,inactive
Cc1ccc(S(=O)(=O)Nc2ccc3c(c2)C(=O)N([C@H](C)CO)C[C@H](C)[C@@H](CN(C)Cc2ccc(C(=O)O)cc2)OCCCC[C@H](C)O3)cc1,inactive,inactive,inactive
O=c1ccc2ccccc2o1,inactive,inactive,inactive
C[C@@H]1CN([C@H](C)CO)S(=O)(=O)c2ccc(C#CC(C)(C)O)cc2O[C@H]1CN(C)C(=O)CN(C)C,inactive,inactive,inactive
Cc1noc(C)c1NC(=O)N(C)C[C@@H]1Oc2cc(Br)ccc2S(=O)(=O)N([C@H](C)CO)C[C@@H]1C,inactive,inactive,inactive
Cc1ccc(S(=O)(=O)N(C)C[C@H]2Oc3ncc(C#CCC(C)C)cc3C(=O)N([C@@H](C)CO)C[C@H]2C)cc1,inactive,active,inactive
O=C(NCC(F)(F)F)[C@H]1[C@H](CO)[C@H]2Cn3c(cccc3=O)[C@@H]1N2C(=O)C1CCC1,inactive,inactive,inactive
O=C(N[C@@H](c1ccccc1)c1ccc2ccccc2n1)C1CCN(Cc2cccc(C(F)(F)F)c2)CC1,inactive,inactive,inactive
Clc1cccc2ccncc12,inactive,inactive,inactive
CN(C)C(=O)COC[C@H]1CN(S(C)(=O)=O)Cc2nnn(C)c21,inactive,inactive,inactive
Cc1ccc(S(=O)(=O)Nc2cccc3c2O[C@H](CN(C)S(C)(=O)=O)[C@@H](C)CN([C@H](C)CO)C3=O)cc1,inactive,inactive,inactive
C[C@@H]1CN([C@@H](C)CO)C(=O)c2cc(C#CC3(O)CCCC3)cnc2O[C@H]1CN(C)S(C)(=O)=O,inactive,inactive,inactive
Cc1ncc(CO)c(CN)c1O,inactive,inactive,inactive
C[C@H](CO)N1C[C@H](C)[C@@H](CN(C)S(=O)(=O)c2ccc(F)cc2)Oc2cc(C3=CCCC3)ccc2S1(=O)=O,inactive,inactive,inactive
CCOC(=O)[C@@H](C)n1ncn2cccc2c1=O,inactive,inactive,inactive
C[C@@H]1CCCCO[C@@H](CN(C)Cc2ccc(C(F)(F)F)cc2)[C@H](C)CN([C@H](C)CO)C(=O)c2cc(NC(=O)Nc3ccccc3)ccc2O1,active,active,inactive
Cc1ccc(S(=O)(=O)Nc2ccc3c(c2)C(=O)N([C@H](C)CO)C[C@H](C)[C@H](CN(C)Cc2ccc(Cl)c(Cl)c2)O3)cc1,active,active,inactive
COc1cccc(S(=O)(=O)N(C)C[C@H]2OCc3cn(nn3)CCCC(=O)N([C@H](C)CO)C[C@H]2C)c1,inactive,inactive,inactive
CC(C)NC(=O)Nc1ccc2c(c1)C(=O)N([C@H](C)CO)C[C@@H](C)[C@H](CN(C)Cc1ccccc1)OCCCC[C@H](C)O2,inactive,inactive,inactive
C[C@@H]1CN([C@H](C)CO)C(=O)c2cccc(NS(C)(=O)=O)c2O[C@@H]1CN(C)Cc1ccc(C(F)(F)F)cc1,inactive,inactive,inactive

Structure (SMILES),cytotoxicity call (HSkMC),cytotoxicity call (HepG2),growth inhibition call (S. aureus RN4220)
CNC[C@H]1Oc2ccc(NS(=O)(=O)c3cn(C)cn3)cc2C(=O)N([C@H](C)CO)C[C@@H]1C,inactive,inactive,inactive
O=C([O-])c1cc(=O)c2c(OCC(O)COc3cccc4oc(C(=O)[O-])cc(=O)c34)cccc2o1.[Na+].[Na+],inactive,inactive,inactive
CCCNC(=O)N1C[C@@H](O)COC[C@H]2O[C@@H](CC(=O)N3CCN(C)CC3)CC[C@@H]21,inactive,inactive,inactive
C[C@H]1CN([C@@H](C)CO)C(=O)CCCn2nncc2CO[C@@H]1CN(C)Cc1ccc2c(c1)OCCN2C,inactive,inactive,inactive
COc1ccc(NC(=O)Nc2ccc3c(c2)C(=O)N([C@H](C)CO)C[C@H](C)[C@@H](CN(C)C(=O)c2ccccc2)OCCCC[C@@H](C)O3)cc1,inactive,inactive,inactive
C=CCOC(=O)[C@@H]1[C@H]2C(=O)O[C@H](c3ccccc3)[C@H](c3ccccc3)N2[C@H](c2ccc(OCCOC(=O)[C@H]3C[C@H]4C(=O)NCC(=O)N4[C@H]3c3cccc(OCCO)c3)cc2)[C@@]12C(=O)Nc1ccccc12,inactive,inactive,inactive
Nc1nc(/C(=C/CC(=O)O)C(=O)N[C@@H]2C(=O)N3C(C(=O)O)=CCS[C@H]23)cs1,inactive,inactive,inactive
COc1ccc(S(=O)(=O)N(C)C[C@@H]2Oc3c(NS(=O)(=O)c4cn(C)cn4)cccc3C(=O)N([C@H](C)CO)C[C@@H]2C)cc1,inactive,inactive,inactive
C[C@H]1CN([C@@H](C)CO)C(=O)c2cc(C#CCN(C)C)cnc2O[C@@H]1CN(C)Cc1cccc(C(=O)O)c1,inactive,inactive,inactive
Cn1cnc(S(=O)(=O)N2CC[C@H]3NC(=O)C[C@H]32)c1,inactive,inactive,inactive
O=C(O)c1cc(O[C@@H]2O[C@H](CO)[C@@H](O)[C@H](O)[C@H]2O)c2ccccc2c1O,inactive,inactive,inactive
COc1cc(C=CC(N)=O)cc(OC)c1OC,inactive,active,inactive
C[C@@H]1CN([C@@H](C)CO)C(=O)c2cc(NS(=O)(=O)c3ccc(F)cc3)ccc2O[C@@H](C)CCCCO[C@@H]1CN(C)C(=O)Nc1ccc2c(c1)OCO2,inactive,inactive,inactive
COc1ccc(NC(=O)Nc2ccc3c(c2)C(=O)N([C@@H](C)CO)C[C@@H](C)[C@@H](CN(C)C(=O)Nc2ccccc2)OCCCC[C@@H](C)O3)cc1,inactive,inactive,inactive
CCCN1C[C@H](C)[C@@H](OC)CN(C)C(=O)c2ccc(NS(=O)(=O)c3cn(C)cn3)cc2OC[C@H]1C,inactive,inactive,inactive
C[C@H]1CCCCO[C@@H](CN(C)Cc2ccc(C(=O)O)cc2)[C@@H](C)CN([C@@H](C)CO)C(=O)c2cc(NS(=O)(=O)c3ccc(Cl)cc3)ccc2O1,inactive,inactive,inactive
COc1cc([C@@H]2[C@H]3CO[C@@]4(O)C(=O)[C@@H]2C=C([C@H]2Oc5cc(O)cc(O)c5C(=O)[C@@H]2O)[C@@H]34)ccc1O,inactive,inactive,inactive
Cc1ccc(S(=O)(=O)Nc2ccc3c(c2)C(=O)N([C@@H](C)CO)C[C@H](C)[C@H](CN(C)Cc2ccc(C(=O)O)cc2)OCCCC[C@H](C)O3)cc1,inactive,inactive,inactive
